{
  "source": "PubChem BioAssay AID504832",
  "about": "(National Center for Advancing Translational Sciences (NCATS), 2011)",
  "note": "Screen size: about 310,000 compounds; about 18,000 (5.8%) were called active. Inconclusive means that the source gave no clear call. Such entries were picked first, then a sample of the others. The call rests on the fitted dose curve; in most records, active means well fitted inhibition curve with a large enough effect; inconclusive means small, poorly fitted or top-dose-only effect, or another doubt; inactive means no such curve, though single readings can be large or run the other way. No potency is given beside an inconclusive call; the fits are too rough. On the % scale 0 is the no-effect control and ±100 the full control effect; potency means the concentration at half of the fitted maximal effect; tags describe the fitted curve by direction and shape.",
  "data": [
    {"assay": "Primary qHTS for delayed death inhibitors of the malarial parasite plastid, 48 hour incubation", "details": "P. falciparum luciferase growth in erythrocytes; series mostly up to 28.7 µM; activity change, negative = inhibition: at the top concentration", "summary_of_the_method": "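Firefly luciferase activity from engineered P. falciparum reports growth; inhibitors lower the luminescent signal. Cultures contained 2% hematocrit erythrocytes at 0.1% final parasitemia.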", "values": [
      {"smiles": "CCOc1ccc(CCNC(=O)c2ccccc2OCc2c(C)noc2C)cc1OCC", "Potency": "inconclusive [inhibitor, partial curve]"},
      {"smiles": "COCCN1C(=O)c2cc(C(=O)Nc3ccc(OC)c(OC)c3)ccc2C1Nc1ccc(OC)c(OC)c1", "note": "(stereo unspecified)", "Potency": "inconclusive [inhibitor, single point]"},
      {"smiles": "COc1ccc(Cl)cc1S(=O)(=O)N1CCC(C(=O)NC2CC2)CC1", "Potency": "inconclusive [inhibitor, partial curve]"},
      {"smiles": "CCn1c2ccccc2c2cc(NC(=O)C/C(C)=N/NC(=O)c3ccccc3N)ccc21", "Potency": "active: 11.7 µM"},
      {"smiles": "C=C1CC[C@@]2(O)[C@H]3Cc4ccc(O)c5c4[C@@]2(CCN3CC2CC2)[C@H]1O5", "Potency": "inactive"},
      {"smiles": "COCCN(Cc1cc2cc(C)ccc2nc1Cl)C(=O)Nc1ccccc1OC", "Potency": "inconclusive [inhibitor, partial curve]"},
      {"smiles": "COCCN(C(=O)COC(=O)c1ccc(Cl)nc1)c1c(N)n(Cc2ccccc2)c(=O)[nH]c1=O", "Potency": "inconclusive [inhibitor, partial curve, poor fit]"},
      {"smiles": "CCOc1ccc2cc(C3CC(c4ccco4)=NN3S(C)(=O)=O)c(=O)[nH]c2c1", "note": "(stereo unspecified)", "activity change, negative = inhibition": "inactive: -7.26%"},
      {"smiles": "C=C(C)COc1ccc(-c2n[nH]c(C)c2-c2ccccc2)c(O)c1", "Potency": "active: 1.85 µM"},
      {"smiles": "COc1ccc2c(-c3ccccc3)cc(=S)[nH]c2c1", "Potency": "inconclusive [inhibitor, single point]"},
      {"smiles": "O=C(CCCSc1nc2ccccc2[nH]1)N1CCN(c2ccc([N+](=O)[O-])cc2)CC1", "Potency": "inconclusive [inhibitor, partial curve]"},
      {"smiles": "O=C(COC(=O)Cc1ccsc1)Nc1ccc(Br)cc1F", "activity change, negative = inhibition": "inactive: 31.3%"},
      {"smiles": "Cc1cc(CNC(=O)COc2c(F)c(F)cc(F)c2F)c2ccccc2n1", "Potency": "inconclusive [inhibitor, partial curve]"},
      {"smiles": "c1ccc(Sc2cnc3ccccc3n2)cc1", "activity change, negative = inhibition": "inactive: 117%"},
      {"smiles": "NS(=O)(=O)c1ccc(CCNC(=O)CNC(=O)c2ccc(Br)o2)cc1", "activity change, negative = inhibition": "inactive: -17%"},
      {"smiles": "COc1cccc(CN2CCN(Cc3[nH]c4ccccc4c3C)CC2CCO)c1", "note": "(stereo unspecified)", "activity change, negative = inhibition": "inactive: -63.2%"},
      {"smiles": "COc1ccc(Cn2c(SCc3ccc(C)cc3)nc3cc(OC)c(OC)cc3c2=N)cc1Cl", "Potency": "active: 1.65 µM"},
      {"smiles": "N/N=c1\\sc2ccccc2n1-c1ccccc1", "activity change, negative = inhibition": "inactive: 6.23%"},
      {"smiles": "CN(CC(=O)NC(=O)NC(C)(C)C)CC(=O)Nc1ccccc1Cl", "Potency": "inconclusive [inhibitor, partial curve, poor fit]"},
      {"smiles": "O=C(Nc1ccnn1C1CCN(Cc2cc(Cl)ccc2O)CC1)c1cccnc1", "Potency": "inconclusive [inhibitor, single point]"},
      {"smiles": "O=C(Nc1ccccc1C(=O)NC(Cc1ccccc1)C(=O)O)c1ccccc1", "note": "(stereo unspecified)", "Potency": "inconclusive [inhibitor, partial curve, poor fit]"},
      {"smiles": "COc1ccc(C(C(=O)NCC2CCCO2)N(C(=O)Cn2nnc3ccccc32)c2ccc(NC(C)=O)cc2)cc1", "note": "(stereo unspecified)", "Potency": "inconclusive [inhibitor, partial curve, poor fit]"},
      {"smiles": "O=C(/C=C/c1ccc(OCc2cccc(Cl)c2)cc1)N1CCOCC1", "Potency": "inconclusive [inhibitor, partial curve, poor fit]"},
      {"smiles": "O=S(=O)(c1cnc(Cl)c(Cl)c1)N1CCc2ccccc21", "activity change, negative = inhibition": "inactive: 22.6%"},
      {"smiles": "N#CCCN1CCN(C(=S)c2ccc(-c3ccc(Cl)cc3)o2)CC1", "activity change, negative = inhibition": "inactive: 14.1%"},
      {"smiles": "O=C(Nc1ccccc1)c1ccc(NCc2cccnc2)c(S(=O)(=O)N2CCOCC2)c1", "Potency": "inconclusive [inhibitor, partial curve, poor fit]"},
      {"smiles": "O=C(CN1CCc2ccccc2C1)Nc1ccc(F)cc1", "activity change, negative = inhibition": "inactive: -0.943%"},
      {"smiles": "Cc1ccc(-c2ccccc2NC(=O)CCl)o1", "Potency": "inconclusive [inhibitor, partial curve, poor fit]"},
      {"smiles": "CCOC(=O)C1=C(C)NC(=O)N(C(C)=O)C1c1ccc(Cl)cc1", "note": "(stereo unspecified)", "Potency": "active: 5.22 µM"},
      {"smiles": "O=[N+]([O-])c1ccc(Cl)cc1Sc1nc2ccccc2o1", "Potency": "active: 8.28 µM"},
      {"smiles": "CS/C(N)=N/N=C/c1ccc([N+](=O)[O-])cc1", "activity change, negative = inhibition": "inactive: 117%"},
      {"smiles": "Cc1ccc(NC(=O)C2CCN(C(=O)NCc3ccccc3)CC2)cc1C", "activity change, negative = inhibition": "inactive: 2.61%"},
      {"smiles": "S=C(c1ccc(Br)cc1)N1CCCC1", "activity change, negative = inhibition": "inactive: -3.65%"},
      {"smiles": "CC(=O)N(CCCN(C)C)c1nc2ccc(C)cc2s1", "Potency": "inconclusive [inhibitor, single point]"},
      {"smiles": "C=CC[C@@H](C)CC(=O)C(CCCN=[N+]=[N-])SOOc1ccccc1", "note": "(stereo partly specified)", "Potency": "inconclusive [inhibitor, single point]"},
      {"smiles": "Cc1cc(C)cc(N/C(N)=N/c2nc(C)cc(C)n2)c1", "Potency": "active: 13.1 µM"},
      {"smiles": "Cn1cc(S(=O)(=O)N2CCCC2)cc1C(=O)Nc1cccc(C(F)(F)F)c1", "Potency": "inconclusive [inhibitor, single point]"},
      {"smiles": "CCc1ccc(OCC(=O)N/N=C(\\C)c2ccc(-n3ccnc3)cc2)cc1", "Potency": "inconclusive [inhibitor, single point]"},
      {"smiles": "CC(C)(C)c1ccc(C(=O)NCCC(=O)Nc2ccc(S(=O)(=O)Nc3nccs3)cc2)cc1", "Potency": "inconclusive [inhibitor, single point]"},
      {"smiles": "CCOc1ccc(C(C(=O)NCC2CCCO2)N(C(=O)c2snc(C(N)=O)c2N)c2ccc(F)cc2)cc1", "note": "(stereo unspecified)", "Potency": "inconclusive [inhibitor, partial curve, poor fit]"},
      {"smiles": "CCOc1nc(OCC)nc(N2CCC(C)CC2)n1", "Potency": "inconclusive [inhibitor, single point]"},
      {"smiles": "Nc1ncc(S(=O)(=O)c2ccc(Cl)cc2)c(N)n1", "activity change, negative = inhibition": "inactive: 25.7%"},
      {"smiles": "CCCCCCCCNC(=O)CC(NS(=O)(=O)c1ccc(NC(C)=O)cc1)C(C)C", "note": "(stereo unspecified)", "Potency": "inconclusive [inhibitor, single point]"},
      {"smiles": "COc1ccccc1N(CC(=O)NC1CCCCC1)C(=O)c1cnn(C(C)C)c1", "Potency": "inconclusive [inhibitor, single point]"},
      {"smiles": "C=CCN(C(=O)CSc1nnnn1C)c1nc(-c2ccccc2)cs1", "activity change, negative = inhibition": "inactive: 36.5%"},
      {"smiles": "Cc1cccc(-n2c(C)cc(/C=C3\\NC(=O)NC3=O)c2C)c1", "activity change, negative = inhibition": "inactive: 11.9%"}
    ]}
  ]
}
